Tests used:
[1] = test system: AKT; test: Phosphorylation of AKT in starved PC3 cells (western blot); format: cell-based, human; conditions: starved PC3 cells (K-ras G12V, TP53 deletion), 10% FCS, 10 nM recombinant MIF, 100 nM antibody; versus untreated or control antibody
Protocol: (§1) FIG. 1: Anti-oxMIF inhibits phosphorylation of ERK and AKT in vitro. […] Cell lysates were separated by SDS-PAGE and blotted on nitrocellulose membranes, and the phosphorylated forms of ERK1/2 (FIG. 1A) or AKT (FIG. 1B) were visualized with phosphor-specific antisera. The total levels of the enzymes were determined by using antisera that recognized all forms of the enzymes and were visualized as a loading control.
(§2) Cell lysates were separated by SDS-PAGE and blotted on nitrocellulose membranes, and the phosphorylated forms of ERK1/2 (FIG. 1A) or AKT (FIG. 1B) were visualized with phosphor-specific antisera. The total levels of the enzymes were determined by using antisera that recognized all forms of the enzymes and were visualized as a loading control. […] Mutant K-ras protein activates ERK1/2 and AKT through a cascade that leads to ERK1/2 and AKT phosphorylation.

[2] = biological target: T1, redMIF (Homo sapiens, UniProt P14174); test: Differential binding of anti-MIF antibodies to redMIF / unmodified recombinant MIF (Biacore surface plasmon resonance); conditions: reduced / unmodified MIF
T1 sequence (P14174 1-115): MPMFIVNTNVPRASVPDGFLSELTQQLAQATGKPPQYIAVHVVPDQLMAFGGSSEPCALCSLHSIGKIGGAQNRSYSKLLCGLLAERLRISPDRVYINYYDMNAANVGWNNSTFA
Protocol: (§3) The anti-oxMIF antibodies used in this invention are able to discriminate between ox and red MIF, which are generated by mild oxidation or reduction, respectively. The anti-oxMIF antibodies are useful to specifically detect oxMIF. Discrimination between these conformers is assessed by ELISA or surface plasmon resonance. Both techniques can be performed as well known to a person skilled in the art and as described below.
(§4) The antibodies were coated on a CM5 (=carboxymethylated dextran) chip and recombinant MIF protein, pre-incubated with 0.2% Proclin®300, were injected. (Proclin®300 consists of oxidative isothiazolones that stabilize the oxMIF structure).
(§5) A preferred method for the determination of binding is surface plasmon resonance of an antibody to e.g. rec. […] “Binding” and “specific binding” is used interchangeably here to denote the above.

[3] = test system: II-8; test: PC3 prostate cancer xenograft, intratumoral II-8 by multiplex immunoassay; format: in vivo, Mf1 nude mice; conditions: 5 or 15 mg/kg intraperitoneally every other day; tumor lysates
Protocol: (§6) FIG. 3: Tumor volume (FIG. 3D) and intratumoral levels of the cytokines, II-6 (FIG. 3B), II-8 (FIG. 3A) and GRO-alpha (FIG. 3C) were analyzed for tumors from a PC3 prostate cancer xenograft in vivo model after treatment with the indicated antibodies. The data shown represent the mean.
(§7) Human prostate adenocarcinoma PC3 cells (containing a mutant KRAS gene encoding a K-ras G12V mutation, and containing a deletion mutation in the TP53 gene) were harvested from exponentially growing cultures, mixed with growth factor-depleted matrigel and inoculated subcutaneously into the right flank of Mf1 nude mice (2×10^6 cells in 0.25 mL Matrigel/mouse, n=10/group). On the next day the antibody treatment was started (5 or 15 mg/kg intraperitoneally every other day). On day 7 after cell injection, the size of tumor xenograft was started to be measured and volume was calculated using the formula V=0.5 x a x b^2 (where “a” is the longest diameter; “b” is the shortest diameter. After termination of the experiment, tumors were excised, flash frozen and homogenized in lysis buffer. Cleared lysates were analyzed by multiplex immunoassays.

[4] = test system: Human prostate adenocarcinoma PC3 cells; test: PC3 prostate cancer xenograft, tumor volume; format: in vivo, Mf1 nude mice; conditions: 5 or 15 mg/kg intraperitoneally every other day; compared to the control antibody
Protocol: as §6, §7

[5] = test system: II-6; test: PC3 prostate cancer xenograft, intratumoral II-6 by multiplex immunoassay; format: in vivo, Mf1 nude mice; conditions: 5 or 15 mg/kg intraperitoneally every other day; tumor lysates
Protocol: as §6, §7

[6] = test system: ERK1/2; test: Phosphorylation of ERK1/2 in starved PC3 cells (western blot); format: cell-based, human; conditions: starved PC3 cells (K-ras G12V, TP53 deletion), 10% FCS, 10 nM recombinant MIF, 100 nM antibody; versus untreated or control antibody
Protocol: as §1, §2

[7] = biological target: T2, oxMIF (Homo sapiens, UniProt P14174); test: Differential binding of anti-MIF antibodies to oxMIF (ELISA or Biacore surface plasmon resonance); conditions: oxMIF (oxidized MIF)
T2 sequence (P14174 1-115): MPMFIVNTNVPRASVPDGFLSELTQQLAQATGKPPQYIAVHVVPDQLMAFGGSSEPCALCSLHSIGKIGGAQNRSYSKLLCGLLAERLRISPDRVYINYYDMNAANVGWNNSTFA
Protocol: as §3, §4, §5

[8] = test system: IGROV-1 human ovarian cancer cells; test: Xenograft model of ovarian cancer, IGROV-1 luciferase cells, bioluminescence; format: in vivo, Nude mice; conditions: 60 mg/kg i.p. every other day from week 4; measured in 4th, 5th and 6th week; IGROV-1 (KRAS wild-type, p53 Y126C)
Protocol: FIG. 2: Tumor measurements in a xenograft model of ovarian cancer based on inhibition of IGROV-1 cells stably expressing the luciferase reporter gene. IGROV-1 human ovarian cancer cells (containing a wild-type KRAS gene, and containing a mutant TP53 gene encoding a p53 Y126C mutation) stably expressing the luciferase reporter gene were implanted on day 0. […] The treatment was carried out every other day. In the 4th, 5th and 6th week after injection of the tumor cells, the tumors were assessed by measuring luciferase activity (total flux in photons per second, p/s) (FIG. 2B).
In order to further confirm the effects of anti-MIF antibodies in the treatment of cancers containing mutations of TP53, a xenograft model of ovarian cancer based on inhibition of IGROV-1 human ovarian cancer cells (containing a wild-type KRAS gene, and containing a mutant TP53 gene encoding a p53 Y126C mutation) stably expressing the luciferase reporter gene was used. Nude mice were injected i.p. with 1×10^7 IGROV-1 luciferase cells. Prior to start of the treatment protocol, animals were assessed for equal tumor burden and randomized into the respective treatment arms.
Measuring luciferase activity: At different time points following cancer cells injection or antibody treatment, tumor growth and spread were monitored by Bioluminescent Assay. […]

[9] = test system: GRO-alpha; test: PC3 prostate cancer xenograft, intratumoral GRO-alpha by multiplex immunoassay; format: in vivo, Mf1 nude mice; conditions: 5 or 15 mg/kg intraperitoneally every other day; tumor lysates
Protocol: as §6, §7

binding to redMIF [2]: incapable of binding to redMIF
binding to oxMIF [7]: specifically bind to oxMIF
B1: RAM0: anti-MIF (oxMIF) antibody, heavy chain SEQ ID NO: 9, light chain SEQ ID NO: 10; DSM 25864 and DSM 25863 (antibody)
heavy: EVQLLESGGGLVQPGGSLRLSCAASGFTFSWYAMDWVRQAPGKGLEWVSGIYPSGGRTKYADSVKGRFTISRDNSKNTLYLQMNSLRAEDTAVYYCARVNVIAVAGTGYYYYGMDVWGQGTTVTVSSASTKGPSVFPLAPSSKSTSGGTAALGCLVKDYFPEPVTVSWNSGALTSGVHTFPAVLQSSGLYSLSSVVTVPSSSLGTQTYICNVNHKPSNTKVDKRV[not shown - human IgG1 Fc]
light: DIQMTQSPGTLSLSPGERATLSCRASQGVSSSSLAWYQQKPGQAPRLLIYGTSSRATGIPDRFSGSASGTDFTLTISRLQPEDFAVYYCQQYGRSLTFGGGTKVEIKRTVAAPSVFIFPPSDEQLKSGTASVVCLLNNFYPREAKVQWKVDNALQSGNSQESVTEQDSKDSTYSLSSTLTLSKADYEKHKVYACEVTHQGLSSPVTKSFNRGEC
modifications: RAM0hc; RAM0lc
phosphorylation of AKT [1]: reduced the phosphorylation
intratumoral level of II-8 [3]: reduced
tumor volume [4]: decreased
intratumoral level of II-6 [5]: reduced
phosphorylation of ERK1/2 [6]: reduced the phosphorylation
luciferase activity (total flux) of tumors [8]: reduction in luciferase activity
intratumoral level of GRO-alpha [9]: reduced

— patent US20180155419A1, “ANTI-MIF ANTIBODIES IN THE TREATMENT OF CANCERS CONTAINING MUTANT TP53 AND/OR MUTANT RAS” (Baxalta GmbH, priority 2015, published 2018)
